# Reference: PubChem BioAssay (Tox21)
# Several values for one entry are separate records, joined by “and”; a condition that tells them apart may be missing. Equal values may be shown once. This list was built around the results that the source calls inconclusive (neither active nor inactive); the mix of calls is not that of the screen. For part of these data: A potency beside an inconclusive call is a rough fit, not a confirmed value. Some structures have more than one record in an assay (separate samples or runs), and their calls can disagree. Activity calls are given as the source filed them. Unless noted, the call rests on the fitted dose curve; in most records, active means well fitted curve in the direction sought with a large enough effect in the repeat runs; inconclusive means weak or mixed curves; inactive means no such curve, though single readings can be large; an effect the other way counts as inactive or inconclusive.
# Assays:
# [1] = qHTS assay to identify small molecule antagonists of the sonic hedgehog signaling (Shh) pathway - cell viability counter screen (AID 1259367); further: nearly all actives have a fitted effect of over 55% in size
# Outline: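 Tox21 library chemicals were tested on a Gli1-Luc NIH/3T3 clone (2,000 cells/well) stimulated by conditioned medium; viability was quantified as fluorescence from CellTiter-Fluor reagent added at 23 hr.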
# [2] = biological target: Estrogen receptor beta (Homo sapiens) (UniProt Q92731); experiment: qHTS assay to identify small molecule agonists of the estrogen receptor beta (ER-beta) signaling pathway (AID 1259377; active means well fitted activation curve with a large enough effect in the signal ratio in the repeat runs, not every such curve was filed as active; inconclusive means weak or mixed curves, or effect the other way; the % refers to the signal ratio); conditions: ER-beta-UAS-bla HEK293T, beta-lactamase FRET ratio, 16 h; activation: at 92.4 µM (top of the series) unless noted
# Chain of UniProt Q92731 (Q92731 whole entry, looked up): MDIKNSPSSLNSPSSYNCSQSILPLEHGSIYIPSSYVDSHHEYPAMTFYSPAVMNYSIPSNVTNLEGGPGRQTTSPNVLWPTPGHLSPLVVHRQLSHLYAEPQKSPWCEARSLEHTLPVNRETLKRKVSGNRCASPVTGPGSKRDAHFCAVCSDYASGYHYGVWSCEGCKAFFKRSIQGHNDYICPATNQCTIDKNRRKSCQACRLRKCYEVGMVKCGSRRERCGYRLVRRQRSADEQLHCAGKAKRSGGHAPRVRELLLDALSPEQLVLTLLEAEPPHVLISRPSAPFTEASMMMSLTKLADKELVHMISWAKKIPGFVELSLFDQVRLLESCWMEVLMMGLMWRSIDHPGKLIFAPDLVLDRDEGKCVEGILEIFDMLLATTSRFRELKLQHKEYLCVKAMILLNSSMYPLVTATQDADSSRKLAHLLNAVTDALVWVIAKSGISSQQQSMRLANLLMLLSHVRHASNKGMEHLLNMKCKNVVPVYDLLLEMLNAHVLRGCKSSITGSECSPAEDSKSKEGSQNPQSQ
# Outline: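 In HEK293T cells bearing a UAS-beta-lactamase reporter under ER-beta control, DMSO-delivered compounds were incubated for 16 hr at 37C. Activity was detected as fluorescence 2 hours after LiveBLAzer B/G FRET substrate addition.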
# [3] = biological target: Estrogen receptor beta (Homo sapiens) (UniProt Q92731); experiment: qHTS assay to identify small molecule antagonists of the estrogen receptor beta (ER-beta) signaling pathway (AID 1259378; active means well fitted inhibition curve with a large enough effect in the signal ratio in the repeat runs, not every such curve was filed as active; inconclusive means weak or mixed curves, or effect the other way; inactive means no such curve, though single readings can be large or run the other way; the % refers to the signal ratio; on activity, negative = inhibition: on the % scale 0 is the no-effect control and ±100 the full control effect); conditions: ER-beta-UAS-bla HEK293T, beta-lactamase FRET ratio, 16 h; activity, negative = inhibition: at 92.4 µM (top of the series) unless noted
# Outline: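 ER-beta-UAS-bla HEK293T cells in 2% charcoal-stripped FBS medium treated with compound plus 1nM final 17-beta-estradiol for 16 hr at 37C. Beta-lactamase reporter read by FRET substrate fluorescence after 2 hours at room temperature.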
# [4] = qHTS assay to identify small molecule agonists of the estrogen receptor beta (ER-beta) signaling pathway - cell viability counter screen (AID 1259380); further: nearly all actives have a fitted effect of over 30% in size
# Outline: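 Cell viability counter screen: CellTiter-Glo luminescence (30 min, room temperature) measured in the same wells as the beta-lactamase readout, after 16 hr compound exposure at 37C of ER-beta-bla HEK293T cells in 2% charcoal-stripped FBS medium.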
# [5] = biological target: Thyrotropin receptor (Homo sapiens) (UniProt P16473); experiment: qHTS assay to identify small molecule antagonists of the thyroid stimulating hormone receptor (TSHR) signaling pathway (AID 1259385; calls by dose curve; further: nearly all actives have a fitted effect of over 20% in size); conditions: TSHR-HEK293 cAMP HTRF, TSH-stimulated antagonist mode; activity change, negative = inhibition: at 92.4 µM (top of the series) unless noted
# Chain of UniProt P16473 (P16473 whole entry, looked up): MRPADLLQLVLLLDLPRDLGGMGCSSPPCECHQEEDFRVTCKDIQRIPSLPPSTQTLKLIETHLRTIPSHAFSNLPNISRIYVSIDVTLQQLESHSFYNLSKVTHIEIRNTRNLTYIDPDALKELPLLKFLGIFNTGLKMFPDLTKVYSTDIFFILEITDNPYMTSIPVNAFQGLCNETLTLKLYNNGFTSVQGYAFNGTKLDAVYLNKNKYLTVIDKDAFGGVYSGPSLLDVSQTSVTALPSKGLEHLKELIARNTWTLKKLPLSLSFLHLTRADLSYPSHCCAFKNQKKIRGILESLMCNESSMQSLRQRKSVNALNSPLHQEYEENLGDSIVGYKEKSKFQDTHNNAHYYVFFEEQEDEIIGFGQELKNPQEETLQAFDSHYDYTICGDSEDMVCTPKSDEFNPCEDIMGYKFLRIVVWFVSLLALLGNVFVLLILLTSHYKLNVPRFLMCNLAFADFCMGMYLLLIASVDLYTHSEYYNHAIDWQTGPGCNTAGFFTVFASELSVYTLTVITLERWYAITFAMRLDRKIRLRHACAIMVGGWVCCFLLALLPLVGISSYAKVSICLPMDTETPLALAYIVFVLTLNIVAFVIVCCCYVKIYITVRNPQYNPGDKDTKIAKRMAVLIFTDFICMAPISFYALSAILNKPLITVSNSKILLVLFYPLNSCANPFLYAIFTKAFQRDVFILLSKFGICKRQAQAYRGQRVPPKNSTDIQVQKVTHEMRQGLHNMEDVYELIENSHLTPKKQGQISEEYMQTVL
# Outline: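 TSHR-HEK293 cells (800/well) plated 18 h, then compounds with Ro20-1724 and TSH at 1.5 ng/mL final, 30 min at room temperature. cAMP quantified by HTRF (cAMP-d2/anti-cAMP-cryptate, 1 h); 15 concentrations in triplicate.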
# [6] = qHTS assay to identify small molecule agonists of the estrogen receptor alpha (ER-alpha) signaling pathway in the presence of an antagonist - cell viability counter screen (AID 1259386); further: nearly all actives have a fitted effect of over 30% in size
# Outline: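 Compounds tested at 15 concentrations for 22 h at 37C alongside 10.0nM (final) ICI-182,780 antagonist, in VM7Luc4E2 cells grown in phenol red-free, charcoal-stripped medium. Viability read by CellTiter-Fluor fluorescence after 1 h reagent incubation.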
# [7] = biological target: Progesterone receptor (Homo sapiens) (UniProt P06401); experiment: qHTS assay to identify small molecule agonists of the progesterone receptor (PR) signaling pathway (AID 1346784; calls by dose curve; further: nearly all actives have a fitted effect of over 30% in size; on activation: on the % scale 0 is the no-effect control and ±100 the full control effect); conditions: PR-UAS-bla HEK293T, beta-lactamase FRET ratio, 16 h; activation: at 92.4 µM (top of the series) unless noted
# Chain of UniProt P06401 (P06401 whole entry, looked up): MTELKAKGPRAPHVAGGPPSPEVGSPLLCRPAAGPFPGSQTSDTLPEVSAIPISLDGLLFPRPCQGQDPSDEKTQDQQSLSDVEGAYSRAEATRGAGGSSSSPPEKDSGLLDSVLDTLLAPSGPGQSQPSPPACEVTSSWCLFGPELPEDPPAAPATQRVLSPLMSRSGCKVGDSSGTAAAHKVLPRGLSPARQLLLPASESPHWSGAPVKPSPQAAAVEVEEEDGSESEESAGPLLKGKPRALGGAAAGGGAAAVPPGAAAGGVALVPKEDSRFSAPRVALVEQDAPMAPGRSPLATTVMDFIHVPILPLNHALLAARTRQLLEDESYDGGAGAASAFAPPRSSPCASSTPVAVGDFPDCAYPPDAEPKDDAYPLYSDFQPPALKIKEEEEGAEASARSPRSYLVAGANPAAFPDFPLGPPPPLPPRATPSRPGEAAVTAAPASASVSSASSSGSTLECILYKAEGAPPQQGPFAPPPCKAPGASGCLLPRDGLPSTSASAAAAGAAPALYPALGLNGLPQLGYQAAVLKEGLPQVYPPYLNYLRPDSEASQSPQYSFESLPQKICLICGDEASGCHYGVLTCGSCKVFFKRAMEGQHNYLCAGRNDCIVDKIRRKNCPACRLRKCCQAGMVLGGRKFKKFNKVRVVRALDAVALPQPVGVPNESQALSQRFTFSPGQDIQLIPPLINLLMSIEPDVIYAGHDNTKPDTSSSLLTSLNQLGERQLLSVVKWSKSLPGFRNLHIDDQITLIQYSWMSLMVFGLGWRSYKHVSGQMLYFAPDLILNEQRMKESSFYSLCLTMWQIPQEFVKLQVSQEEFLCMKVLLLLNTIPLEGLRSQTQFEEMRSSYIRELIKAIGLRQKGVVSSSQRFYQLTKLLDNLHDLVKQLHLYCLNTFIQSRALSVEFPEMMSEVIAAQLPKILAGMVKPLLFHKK
# Outline: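 Using charcoal-stripped serum (2%) to limit endogenous steroids, PR-UAS-bla HEK 293T cells received compounds for 16 hr at 37C after 6 hr plating; beta-lactamase FRET fluorescence was recorded following 2 hr substrate loading at room temperature.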
# [8] = biological target: Progesterone receptor (Homo sapiens) (UniProt P06401); experiment: qHTS assay to identify small molecule antagonists of the progesterone receptor (PR) signaling pathway (AID 1346795; active means well fitted inhibition curve with a large enough effect in the signal ratio in the repeat runs, not every such curve was filed as active; inconclusive means weak or mixed curves; the % refers to the signal ratio; on activity change, negative = inhibition: on the % scale 0 is the no-effect control and ±100 the full control effect); conditions: PR-UAS-bla HEK293T, beta-lactamase FRET ratio, 16 h
# Outline: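 Inhibition of R5020-induced (1 nM final) beta-lactamase reporter signal in PR-UAS-bla HEK293T cells was scored by FRET fluorescence after overnight (16 hr) compound treatment.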
# [9] = qHTS assay to identify small molecule antagonists of the progesterone receptor (PR) signaling pathway - cell viability counter screen (AID 1346798); further: nearly all actives have a fitted effect of over 50% in size
# Outline: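 ATP content as viability readout: CellTiter-Glo luminescence, 30 min room temperature, in PR-UAS-bla HEK293T cells after 16 hr compound/R5020 treatment at 37C and 5% CO2.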
# [10] = qHTS assay to identify small molecule agonists of the progesterone receptor (PR) signaling pathway - cell viability counter screen (AID 1346799; calls by dose curve; further: nearly all actives have a fitted effect of over 45% in size)
# Outline: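 Cytotoxicity in PR-bla HEK293T cells: 16 h compound, 37C; CellTiter-Glo added post-FRET read; luminescence after 30 min RT.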
# [11] = qHTS assay to identify small molecule agonists of the sonic hedgehog signaling (Shh) pathway (AID 1259368; calls by dose curve; further: nearly all actives have a fitted effect of over 15% in size)
# Outline: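 Luminescence was read after 30 min at room temperature with luciferase reagent. Before that, 3T3Gli1-Luc cells (NIH/3T3 clone, stable Gli1-Luc reporter; 2,000/well) were exposed to compounds for 24 hr at 37C, 5% CO2, compounds being added 4 hr post-plating.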
# [12] = qHTS assay to identify small molecule agonists of the androgen receptor (AR) signaling pathway in the presence of an antagonist - cell viability counter screen (AID 1259379); further: nearly all actives have a fitted effect of over 25% in size
# Outline: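 Cytotoxicity counter-screen run in the same wells as the nilutamide-challenged (3.0 µM final) AR agonist assay in MDA-kb2 cells. Compounds tested at 15 concentrations for 16 h, 37 °C without CO2; CellTiter-Fluor fluorescence read.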
# [13] = qHTS assay to identify small molecule antagonists of the sonic hedgehog signaling (Shh) pathway (AID 1259369; calls by dose curve; further: nearly all actives have a fitted effect of over 45% in size; on activity change, negative = inhibition: on the % scale 0 is the no-effect control and ±100 the full control effect)
# Outline: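 Antagonist mode: compound added to 3T3 Gli1-Luc cells followed by conditioned-medium stimulation, 24 h at 37 C, 5% CO2. Inhibition taken as loss of Gli1-driven luciferase luminescence.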
# [14] = qHTS assay to identify small molecule antagonists of the estrogen receptor beta (ER-beta) signaling pathway - cell viability counter screen (AID 1259382); further: nearly all actives have a fitted effect of over 55% in size
# Outline: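 Cytotoxicity was measured in the same wells by CellTiter-Glo luminescence after 30 min at room temperature. Cells were ER-beta-bla HEK293T in charcoal-stripped serum, given compound together with 1 nM E2 and incubated 16 h at 37C.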
# [15] = qHTS assay to identify small molecule antagonists of the TGF-beta/Smad signaling pathway - cell viability counter screen (AID 1346824); further: nearly all actives have a fitted effect of over 50% in size
# Outline: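 SBE-bla HEK 293T cells, incubated overnight, then compound plus 0.25 ng/mL TGF-beta1 (stock added) for 5 hr at 37 C. Viability was read in the same wells by CellTiter-Glo luminescence after 30 min at room temperature.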
# [16] = activity change, negative = inhibition: at 92.4 µM (top of the series) unless noted
# Potency means the concentration at half of the fitted maximal effect; tags describe the fitted curve by direction and shape or compound fluorescence and quenching.
structure (smiles),measurement,setting,value
C/C(=C\c1ccccc1)[N+](=O)[O-],Potency,[1],"inconclusive: 68.6 µM [cytotoxic, single point]"
same,Potency,[2],"inconclusive: 68.6 µM [rising, single point]"
same,Potency,[3],inconclusive: 54.5 µM
same,Potency,[4],"inconclusive: 61.1 µM [cytotoxic, partial curve, poor fit]"
same,Potency,[5],"inconclusive: 68.6 µM [falling, single point]"
same,Potency,[6],"inconclusive: 68.6 µM [cytotoxic, single point]"
same,Potency,[7],inconclusive: 38.6 µM [inhibitor]
same,Potency,[8]; [16],inconclusive: 48.6 µM [partial curve]
same,Potency,[9],"inconclusive: 68.6 µM [cytotoxic, single point]"
same,Potency,[10],active: 68.6 µM
CN(C)c1ccc(N=Nc2ccccc2)cc1,Potency,[1],"inconclusive: 27.3 µM [cytotoxic, partial curve]"
same,Potency,[11],active: 1.72 µM
same,Potency,[12],active: 48.6 µM
same,Potency,[4],"inconclusive: 30.7 µM [cytotoxic, partial curve]"
same,Potency,[5],"inconclusive: 68.7 µM [falling, single point]"
same,Potency,[6],active: 48.6 µM
same,Potency,[8]; [16],"inconclusive: 48.6 µM [falling, partial curve]"
same,Potency,[10],"inconclusive: 54.5 µM [rising, partial curve, poor fit]"
CCN(CC)C(=S)[S-].CCN(CC)C(=S)[S-].[Zn+2],Potency,[1],active: 1.08 µM
same,Potency,[13],active: 0.481 µM
same,Potency,[4],active: 2.71 µM
same,Potency,[14],active: 2.15 µM
same,Potency,[5],active: 68 µM
same,activation,[7],inconclusive: -20.4%
same,Potency,[8]; [16],active: 1.08 µM
same,Potency,[9],active: 1.21 µM
same,Potency,[10],inconclusive: 1.21 µM [cytotoxic]
same,Potency,[15],active: 12.2 µM
CC[n+]1ccccc1,Potency,[1],"inconclusive: 27.1 µM [cytotoxic, partial curve]"
same,Potency,[13],active: 0.429 µM
same,Potency,[12],active: 24.1 µM
same,Potency,[14],"inconclusive: 54 µM [cytotoxic, partial curve]"
same,Potency,[5],inconclusive: 68 µM
same,Potency,[6],active: 42.9 µM
same,Potency,[7],"inconclusive: 68 µM [rising, single point]"
same,Potency,[8]; [16],"inconclusive: 42.9 µM [rising, partial curve]"
same,Potency,[10],active: 48.2 µM
same,Potency,[15],"inconclusive: 54.5 µM [cytotoxic, partial curve]"
N[C@@H](Cc1ccc(N(CCCl)CCCl)cc1)C(=O)O,Potency,[1],"inconclusive: 33 µM [cytotoxic, single point] and inconclusive: 26.6 µM [cytotoxic, partial curve, poor fit]"
same,Potency,[2],"inconclusive: 33 µM [rising, single point]"
same,Potency,[3],inactive
same,Potency,[4],"inconclusive: 26.2 µM [cytotoxic, partial curve] and inactive"
same,Potency,[6],"inconclusive: 33 µM [cytotoxic, partial curve, poor fit]"
same,Potency,[7],"inconclusive: 13.3 µM [rising, single point]"
same,"activity change, negative = inhibition",[8]; [16],inconclusive: -23.9% [at 42.5 µM]
same,"activity change, negative = inhibition",[8]; at 42.5 µM (top of the series),inactive: -13.4%
same,Potency,[9],"inconclusive: 7.5 µM [cytotoxic, single point]"
same,Potency,[10],"inconclusive: 13.3 µM [cytotoxic, partial curve, poor fit]"
O=C(CBr)c1ccccc1,Potency,[1],"inconclusive: 61.5 µM [cytotoxic, single point]"
Oc1ccccc1-c1ccccc1,Potency,[1],"inconclusive: 70.2 µM [cytotoxic, single point]"
same,Potency,[13],"inconclusive: 68.6 µM [inhibitor, single point]"
same,Potency,[4],"inconclusive: 55.8 µM [cytotoxic, partial curve]"
ClCc1ccccc1,Potency,[1],"inconclusive: 68.2 µM [cytotoxic, single point]"
same,Potency,[4],"inconclusive: 21.6 µM [cytotoxic, partial curve, poor fit]"
same,Potency,[7],inactive
same,Potency,[8]; [16],inactive
same,Potency,[9],inactive
same,Potency,[10],inactive
C=CCN(CC=C)C(=O)C(Cl)Cl,Potency,[13],"inactive and inconclusive: 6.11 µM [inhibitor, single point]"
OC[P+](CO)(CO)CO,Potency,[1],"inconclusive: 69.4 µM [cytotoxic, single point]"
same,Potency,[4],"inconclusive: 48.6 µM [cytotoxic, partial curve]"
same,Potency,[14],inactive
same,Potency,[7],"inconclusive: 2.73 µM [falling, single point]"
same,"activity change, negative = inhibition",[8]; [16],inconclusive: 11.2%
same,Potency,[9],"inconclusive: 61.8 µM [cytotoxic, partial curve]"
same,Potency,[10],inconclusive: 69.4 µM [cytotoxic] and inactive
